PubChem BioAssay AID1671193 (National Center for Advancing Translational Sciences (NCATS), 2021)
Among all 150,000 compounds or so, about 180 (0.12%) were called active. Inconclusive results, whose numbers are uncertain, are shown with a selection of clear calls. The call rests on the fitted dose curve; in most records, active means well fitted cell-killing curve with a large enough effect; inconclusive means small, poorly fitted or top-dose-only effect, or effect the other way; inactive means flat fitted curve, though single readings scatter. Potencies beside an inconclusive call are fits to weak or partial responses and may not hold up.

Experiment: GF-AFC viability counterscreen for inhibitors of alpha-synuclein gene (SNCA) expression; further: nearly all actives have a fitted effect of over 30% in size;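 on activity change, negative = cytotoxicity: 0% = DMSO-treated cells and -100% = medium-only wells without cells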
Conditions: HEK-293-SNCA-luc viability, GF-AFC fluorescence, 24 h; activity change, negative = cytotoxicity: at 57.1 µM (top of the series) unless noted
Summary of the method: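 Cytotoxicity counterscreen: after 24 h compound treatment of genome-edited SNCA-luciferase HEK-293 cells, live-cell protease substrate GF-AFC read by fluorescence after 30 min; activity scaled between DMSO (0%) and medium-only (-100%), curves Hill-fitted.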
Potency means the concentration at half of the fitted maximal effect; tags describe the fitted curve by direction and shape.

Compound	Potency	activity change, negative = cytotoxicity
CCn1cc(C(=O)O)c(=O)c2ccc(C)nc21	inconclusive: 15.2 µM [cytotoxic, single point]	
Cc1ccc(C)c(OCC(=O)c2ccc3c(c2)N(CCCC(=O)N2CCOCC2)C(=O)CO3)c1C		inconclusive: -34.7%
COCc1nncn1C1CCN(C(=O)c2cccc(C(F)(F)F)c2)CC1	inconclusive: 1.58 µM [rising, full curve, poor fit]	
CCCN(CCC)C(=O)Cn1c(=O)n(-c2cccc(C(F)(F)F)c2)c(=O)c2c(C)c(C)sc21	inconclusive: 1.58 µM [cytotoxic, full curve, poor fit]	
CCOc1ccccc1NC(=O)CSc1nc2ccccc2c2nc(CCn3cncc3C)nn12	inconclusive: 39.8 µM [cytotoxic, single point]	
COc1ccccc1NC(=O)C1CCCN(c2nnc(C)c3c(C)n(-c4ccccc4)nc23)C1 (stereo unspecified)	inconclusive: 3.55 µM [cytotoxic, full curve, poor fit]	
CC1=C[C@@H](CNC(=O)c2ccc(F)cc2)[C@H](C(C)C)C[C@H]1Cc1nnc(-c2ccncc2)o1	inconclusive: 39.8 µM [cytotoxic, partial curve, poor fit]	
Cc1c(-c2ccc(F)cc2)[nH]c2ccc(CNC(=O)c3n[nH]c4c3CCCC4)cc12	inconclusive: 39.8 µM [cytotoxic, single point]	
CN(CC(=O)N1CCC(CCOc2ccc(F)cc2)C1)S(=O)(=O)c1ccc2c(c1)oc(=O)n2C (stereo unspecified)	inconclusive: 22.4 µM [cytotoxic, partial curve, poor fit]	
CCn1cc(S(=O)(=O)N2CCC3(CCC3OC)CC2)cn1 (stereo unspecified)	inactive	
Cc1ccc(-c2nc(CCNC(=O)C(=O)Nc3ccc(C)c(C)c3)cs2)cc1	inconclusive: 35.5 µM [rising, partial curve, poor fit]	
O=C(Nc1ccc(Cl)cc1)c1nc2c(o1)CCN(Cc1cccc(O)c1)CC2	inconclusive: 39.8 µM [cytotoxic, single point]	
COc1cccc(-c2cn3cc(C(=O)NCc4cccc(Cl)c4)nc3s2)c1	inconclusive: 39.8 µM [cytotoxic, single point]	
CC(=O)N[C@H]1C[C@@H](Cc2cc(CN3CCCCC3)on2)C1(C)C	inactive	
COC(=O)Nc1cc(-c2cccnc2)nn1-c1ccccc1	inactive	
CC1(C(=O)NCC2CC2)CCCc2cnc(NCc3ccccc3)nc21 (stereo unspecified)	inactive	
CC1(C(=O)NCc2ccncc2)CCCc2cnc(Nc3ccccc3)nc21 (stereo unspecified)	inconclusive: 28.2 µM [cytotoxic, partial curve, poor fit]	
O=S(=O)(NCc1nc2cccnc2n1Cc1ccccc1Cl)c1ccc(F)c(Cl)c1	inconclusive: 39.8 µM [cytotoxic, single point]	
CCOc1ccc(N(Cc2ccccc2)C(=O)c2nc(S(C)(=O)=O)ncc2Cl)cc1	active: 5.62 µM	
COc1ccc(OC)c(NC(=O)Cn2c(=O)cc(-c3ccccc3)c3c(C)nn(C)c32)c1	inconclusive: 28.2 µM [cytotoxic, single point]	
Cc1cc(NC(=O)CCNS(=O)(=O)c2cccc3nsnc23)ccc1Br	inconclusive: 10 µM [rising, partial curve, poor fit]	

Compound	Potency	activity change, negative = cytotoxicity
CC(C)CN1CCC(O)(c2csc(CN3CCOCC3)n2)CC1	inactive	
Cc1c(CC(=O)NCc2ccc(F)cc2)c(=O)oc2cc(O)c(Cl)cc12	inconclusive: 12.6 µM [rising, partial curve]	
Cc1ccc(S(=O)(=O)NC(=O)NN2CC3CCCC3C2)cc1 (stereo unspecified)	inconclusive: 15.2 µM [cytotoxic, partial curve]	
COc1ccc(-c2nc(C3CC(=O)N(C4CCCCC4)C3)no2)c(C)c1 (stereo unspecified)	inactive	
COc1ccc(-c2cn3cc(C(=O)N4CCN(C(C)=O)CC4)nc3s2)cc1	inconclusive: 8.91 µM [cytotoxic, single point]	
CCCCN1CC(c2nc3ccccc3n2CCCCOc2cccc(C)c2C)CC1=O (stereo unspecified)	inconclusive: 39.8 µM [cytotoxic, single point]	
CCNc1ncc2nc(-c3ccc(Cl)cc3)c(=O)n(CCC#N)c2n1	inconclusive: 28.2 µM [rising, partial curve]	
COc1ccc2c(CNCCc3cccs3)c(C(=O)O)n(Cc3ccc(F)cc3Cl)c2c1	inconclusive: 39.8 µM [cytotoxic, single point]	
O=C(C[C@@H]1C(C(=O)O)=CO[C@@H](O[C@@H]2O[C@H](CO)[C@@H](O)[C@H](O)[C@H]2O)/C1=C\CO)OCCc1ccc(O)c(O)c1	inactive	
O=c1c(-c2ccccc2)nc2cnc(N3CCOCC3)nc2n1C1CC1	inconclusive: 39.8 µM [rising, single point]	
CCN(CC)CCOc1ccc(Cc2ccccc2)cc1	inconclusive: 3.41 µM [cytotoxic, full curve]	
O=C(Cn1nc2n(c1=O)CCCC2)Nc1ccccc1	inactive	
CC(=O)CC1CCC(C(C)C(=O)OCC(O)CO)O1 (stereo unspecified)	inconclusive: 0.0095 µM [cytotoxic, full curve]	
COCCNC(=O)C1(C)CN(Cc2ccccc2)Cc2ccc(NCC(C)C)nc21 (stereo unspecified)	inconclusive: 56.2 µM [cytotoxic, single point]	
CCc1[nH]c2ccc(CNC(=O)Cc3cnc4c(C)cccn34)cc2c1C	inconclusive: 1.12 µM [cytotoxic, full curve, poor fit]	
CCN(CC)c1ccc(NC(=O)c2cccn2-c2nnc(N3CCCCC3)s2)c(C)c1	inconclusive: 35.5 µM [cytotoxic, single point]	
N#Cc1cccc(-c2cn3c(n2)N(C(=O)C2CCCO2)CCC3)c1 (stereo unspecified)	inactive	
O=C(CCC1CCCC1)N1CCC2(CC1)CC(N(Cc1ccc(F)cc1)C1CC1)CCO2 (stereo unspecified)	inactive	
COc1cccc(CN2Cc3nc(-c4cccc(O)c4)ccc3OCC2=O)c1	inactive	
Cc1ccc(-n2cc(-c3ccccc3)c3c(N4CCCCC4)ncnc32)cc1	inconclusive: 2.82 µM [rising, full curve, poor fit]	
